Measurements reported in article PMC7705112, “A Novel, Broad-Acting Peptide Inhibitor of Double-Stranded DNA Virus Gene Expression and Replication” (Frontiers in Microbiology, 2020).
Peptide text beside a SMILES is read from it.

System: simian virus 40 (SV40) strain VR-239

Row | Molecule | inhibition of large T antigen transcript levels (at the highest concentration tested (20 μM), vs untreated cells) | effect on large T antigen mRNA levels (Figure 9A, TAT (48–60))
1 | CC(C)C[C@H](NC(=O)[C@H](CS)NC(=O)[C@H](CCC(N)=O)NC(=O)[C@@H]1CCCN1C(=O)[C@@H]1CCCN1C(=O)[C@H](CCCNC(=N)N)NC(=O)[C@H](CCCNC(=N)N)NC(=O)[C@H](CCCNC(=N)N)NC(=O)[C@H](CCC(N)=O)NC(=O)[C@H](CCCNC(=N)N)NC(=O)[C@H](CCCNC(=N)N)NC(=O)[C@H](CCCCN)NC(=O)[C@H](CCCCN)NC(=O)[C@H](CCCNC(=N)N)NC(=O)CN)C(=O)N[C@@H](C)C(=O)N[C@@H](Cc1ccccc1)C(=O)N[C@@H](Cc1ccc(O)cc1)C(=O)N[C@@H](C)C(=O)N[C@@H](CS)C(=O)N[C@@H](Cc1ccccc1)C(=O)N[C@@H](CS)C(=O)O [TAT-I24] (H-GRKKRRQRRRPPQCLAFYACFC-OH) | approximately 98% | –
2 | GRKKRRQRRRPPQ [TAT] | – | no inhibitory effect
